Source: the supplement of paper PMC4967469

How the values were obtained:
Test in all cases: Viability of human cancer cell lines after 72 h of drug (GDSC screen)
VNLG/124 = compound: CCCC(=O)OCc1ccc(OC(=O)/C=C(C)/C=C/C=C(C)/C=C/C2=C(C)CCCC2(C)C)cc1 [VNLG/124]; conditions: top dose 5.12 µM; top dose inferred
Procedure: (§1)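 Human cancer cell lines in 384-well plates, medium with 10% serum, drug for 72 h over a 256-fold dose range (nine 2-fold or five 4-fold steps up to the top dose). Adherent lines were fixed and stained with the nucleic acid dye Syto60, suspension lines read with resazurin; signal relative to control wells, capped at 0 and 100%. One two-parameter sigmoid per drug and line, fitted in a mixed model over all curves with the slope shared within a line.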

Masitinib = compound: Cc1ccc(NC(=O)c2ccc(CN3CCN(C)CC3)cc2)cc1Nc1nc(-c2cccnc2)cs1 [Masitinib]; conditions: top dose 20 µM
Procedure: as §1

OSI-930 = compound: O=C(Nc1ccc(OC(F)(F)F)cc1)c1sccc1NCc1ccnc2ccccc12 [OSI-930]; conditions: top dose 10.24 µM
Procedure: as §1

BX-912 = compound: O=C(Nc1cccc(Nc2ncc(Br)c(NCCc3cnc[nH]3)n2)c1)N1CCCC1 [BX-912]; conditions: top dose 10.24 µM; top dose inferred
Procedure: as §1

Bleomycin = compound: Cc1c(N)nc([C@H](CC(N)=O)NC[C@H](N)C(N)=O)nc1C(=O)N[C@H](C(=O)N[C@H](C)[C@@H](O)[C@H](C)C(=O)N[C@H](C(=O)NCCc1nc(-c2nc(C(=O)NCCC[S+](C)C)cs2)cs1)[C@@H](C)O)[C@@H](OC1OC(CO)C(O)C(O)C1OC1OC(CO)C(O)C(OC(N)=O)C1O)c1cnc[nH]1 [Bleomycin]
Procedure: as §1

LAQ824 = compound: O=C(/C=C/c1ccc(CN(CCO)CCc2c[nH]c3ccccc23)cc1)NO [LAQ824]; conditions: top dose 1.024 µM; top dose inferred
Procedure: as §1

NSC-87877 = compound: O=S(=O)(O)c1ccc2cc(N=Nc3cc(S(=O)(=O)O)c4cccnc4c3O)ccc2c1 [NSC-87877]; conditions: top dose 16 µM; top dose inferred
Procedure: as §1

Elesclomol = compound: CN(NC(=O)CC(=O)NN(C)C(=S)c1ccccc1)C(=S)c1ccccc1 [Elesclomol]; conditions: top dose 0.2 µM; top dose inferred
Procedure: as §1

[1] = top dose 64 µM, screen: GDSC drug entry 190
[2] = top dose 50 µM, screen: GDSC drug entry 1378, top dose inferred

| Cell Line | AUC (VNLG/124) | pIC50 (VNLG/124) | AUC (Masitinib) | pIC50 (Masitinib) | AUC (OSI-930) | pIC50 (OSI-930) | AUC (BX-912) | pIC50 (BX-912) | AUC (Bleomycin; [1]) | pIC50 (Bleomycin; [1]) | AUC (LAQ824) | pIC50 (LAQ824) | AUC (NSC-87877) | pIC50 (NSC-87877) | AUC (Bleomycin; [2]) | pIC50 (Bleomycin; [2]) | AUC (Elesclomol) | pIC50 (Elesclomol) |
| --- | --- | --- | --- | --- | --- | --- | --- | --- | --- | --- | --- | --- | --- | --- | --- | --- | --- | --- |
| SNU-175 (large intestine, suspension) | 0.987 | < 5.29 | 0.643 | 5.52 | 0.984 | < 4.99 | 0.651 | 5.79 |  |  |  |  |  |  |  |  |  |  |
| KP-N-YS (neuroblastoma, adherent) | 0.889 | < 5.29 | 0.814 | 4.89 | 0.922 | < 4.99 | 0.614 | 5.86 | 0.722 | 4.72 | 0.336 | 7.68 | 0.972 | < 4.80 |  |  |  |  |
| HL-60 (acute myeloid leukaemia, suspension) | 0.789 | 5.70 | 0.878 | 4.78 | 0.936 | < 4.99 | 0.651 | 5.80 | 0.811 | 4.52 | 0.321 | 7.67 | 0.98 | < 4.80 | 0.949 | < 4.30 |  |  |
| SU-DHL-1 (anaplastic large cell lymphoma, suspension) | 0.997 | < 5.29 | 0.915 | 4.84 | 0.968 | < 4.99 | 0.941 | 5.04 | 0.406 | 5.63 | 0.662 | 6.80 | 0.992 | < 4.80 |  |  |  |  |
| YMB-1-E (breast, adherent) | 0.969 | < 5.29 | 0.861 | < 4.70 | 0.941 | < 4.99 | 0.975 | < 4.99 |  |  |  |  |  |  |  |  |  |  |
| NB17 (neuroblastoma, adherent) | 0.97 | < 5.29 | 0.769 | 5.06 | 0.886 | < 4.99 | 0.966 | < 4.99 |  |  |  |  | 0.612 | 5.67 | 0.759 | 4.70 | 0.489 | 7.94 |
| CHP-134 (neuroblastoma, suspension) | 0.92 | < 5.29 | 0.789 | 4.94 | 0.971 | < 4.99 | 0.594 | 5.90 |  |  |  |  |  |  |  |  |  |  |
| NK-92MI (lymphoid neoplasm, suspension) |  |  |  |  |  |  | 0.864 | 5.10 | 0.138 | 6.48 | 0.348 | 7.60 | 0.953 | < 4.80 |  |  |  |  |
| TALL-1 (T-cell lymphoblastic leukaemia, suspension) | 0.986 | < 5.29 | 0.912 | < 4.70 | 0.94 | < 4.99 | 0.866 | 5.07 | 0.96 | < 4.19 | 0.583 | 6.97 | 0.97 | < 4.80 |  |  |  |  |
| SIG-M5 (acute myeloid leukaemia, suspension) | 0.01 | > 7.70 | 0.903 | 4.84 | 0.774 | 5.51 | 0.414 | 6.40 | 0.231 | 6.06 | 0.224 | 7.88 | 0.986 | < 4.80 |  |  |  |  |
| SCC-3 (B-cell lymphoma, suspension) | 0.995 | < 5.29 | 0.889 | 4.92 | 0.981 | < 4.99 | 0.968 | < 4.99 | 0.516 | 5.36 | 0.536 | 7.11 | 0.99 | < 4.80 |  |  |  |  |
| TE-441-T (rhabdomyosarcoma, adherent) |  |  | 0.951 | < 4.70 | 0.943 | < 4.99 | 0.827 | 5.23 | 0.766 | 4.64 | 0.721 | 6.58 | 0.978 | < 4.80 |  |  |  |  |
| ECC12 (stomach, suspension) |  |  |  |  |  |  |  |  |  |  |  |  | 0.947 | < 4.80 |  |  |  |  |
| A172 (glioma, adherent) | 0.987 | < 5.29 | 0.879 | 4.71 | 0.96 | < 4.99 | 0.829 | 5.22 | 0.712 | 4.81 | 0.603 | 6.92 | 0.968 | < 4.80 | 0.571 | 5.32 |  |  |
| MDA-MB-157 (breast, adherent) | 0.988 | < 5.29 | 0.947 | < 4.70 | 0.988 | < 4.99 | 0.91 | < 4.99 | 0.919 | < 4.19 | 0.295 | 7.78 | 0.987 | < 4.80 | 0.833 | 4.48 |  |  |
| THP-1 (acute myeloid leukaemia, suspension) | 0.958 | < 5.29 |  |  | 0.931 | < 4.99 | 0.856 | 5.16 |  |  | 0.523 | 7.13 | 0.989 | < 4.80 |  |  |  |  |
| NCI-H2196 (small cell lung carcinoma, adherent) | 0.98 | < 5.29 | 0.779 | 5.07 | 0.968 | < 4.99 | 0.883 | < 4.99 | 0.778 | 4.56 | 0.544 | 7.07 | 0.977 | < 4.80 |  |  |  |  |
| MM1S (myeloma, suspension) |  |  |  |  |  |  |  |  |  |  |  |  |  |  |  |  | 0.562 | 7.74 |
| BICR31 (head and neck, adherent) | 0.982 | < 5.29 | 0.909 | < 4.70 | 0.986 | < 4.99 | 0.936 | < 4.99 | 0.296 | 5.97 | 0.486 | 7.23 | 0.985 | < 4.80 |  |  |  |  |
| HeLa (cervix, adherent) | 0.987 | < 5.29 | 0.968 | < 4.70 | 0.969 | < 4.99 | 0.947 | < 4.99 |  |  |  |  | 0.98 | < 4.80 | 0.641 | 5.12 | 0.649 | 7.50 |

pIC50: −log10 of the molar value. IC50 is the fitted dose that halves viability relative to control wells, and lower means more sensitive; a limit (>, <) means that the fit lies beyond the doses tested. AUC, from the same fit, is the share of area under the viability curve across the 256-fold dose range: 1 means no effect, lower means more sensitive. For some of these results: The top dose, if marked as inferred, is not printed in the source and was worked back from the curve model. For some of these results: Drugs with an entry number were screened twice under separate entries, and the two screens often disagree.
